Consider 50 cell lines from the supplement of paper PMC4967469.

The IC50 comes from the fitted curve, where viability falls to half of the control; a limit (>, <) means that the fit lies beyond the doses tested. AUC sums up the same curve from the lowest dose to the 256-fold higher top dose; values near 1 show little effect.

Compound in the assay: COc1ccc(C2=N[C@@H](c3ccc(Cl)cc3)[C@@H](c3ccc(Cl)cc3)N2C(=O)N2CCNC(=O)C2)c(OC(C)C)c1 [Nutlin-3a]
In words: Viability of human cancer cell lines after 72 h of drug (GDSC screen). The procedure: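 Human cancer cell lines in 384-well plates, medium with 10% serum, drug for 72 h over a 256-fold dose range (nine 2-fold or five 4-fold steps up to the top dose). Adherent lines were fixed and stained with the nucleic acid dye Syto60, suspension lines read with resazurin; signal relative to control wells, capped at 0 and 100%. One two-parameter sigmoid per drug and line, fitted in a mixed model over all curves with the slope shared within a line.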

As usually defined, the IC50 is the concentration needed to halve the response being measured. As for “MDA-MB-436 (breast, adherent, top dose 8 µM)”, the AUC stood at 0.961 and the IC50 is over 8 µM.

On to “MDA-MB-453 (breast, adherent, top dose 8 µM)”, for which the AUC came out at 0.985 and the IC50 was over 8 µM.

“MDST8 (large intestine, adherent, top dose 8 µM)”: the AUC was determined as 0.893 and the IC50 is over 8 µM.

Regarding “ME-1 (acute myeloid leukaemia, suspension, top dose 8 µM)”, the AUC stood at 0.984 and the IC50 was over 8 µM.

“ME-180 (cervix, adherent, top dose 8 µM)”: the AUC turned out to be 0.969 and the IC50 is over 8 µM.

In the case of “MEG-01 (chronic myeloid leukaemia, suspension, top dose 8 µM)”, the AUC came to 0.976 and the IC50 is over 8 µM.

As for “MEL-HO (melanoma, adherent, top dose 8 µM)”, the AUC came to 0.844 and the IC50 is 5.82 µM.

For the cell line “MEL-JUSO (melanoma, adherent, top dose 8 µM)”, the AUC was 0.752 and the IC50 amounted to 2.92 µM.

On to “MES-SA (uterus, adherent, top dose 8 µM)”, for which the AUC came out at 0.914 and the IC50 was over 8 µM.

Consider “MFE-280 (endometrium, adherent, top dose 8 µM)”, for which the AUC was 0.982 and the 50% inhibitory concentration (IC50) is over 8 µM.

Regarding “MFE-296 (endometrium, adherent, top dose 8 µM)”, the AUC stood at 0.864 and the IC50 amounted to 7.83 µM.

Take “MFE-319 (endometrium, adherent, top dose 4 µM)”: the AUC was 0.975 and the IC50 is over 4 µM.

For “MFH-ino (soft tissue, adherent, top dose 8 µM)”, the AUC amounted to 0.743 and the IC50 worked out at 2.86 µM.

For “MFM-223 (breast, adherent, top dose 8 µM)”, the AUC was found to be 0.989 and the IC50 is over 8 µM.

In the case of “MG-63 (osteosarcoma, adherent, top dose 8 µM)”, the AUC came out at 0.984 and the IC50 is over 8 µM.

With “MHH-CALL-2 (B-cell leukaemia, suspension, top dose 8 µM)”, the AUC came out at 0.987 and the IC50 was over 8 µM.

With “MHH-ES-1 (Ewing sarcoma, adherent, top dose 8 µM)”, the AUC was found to be 0.983 and the IC50 is over 8 µM.

On to “MHH-NB-11 (neuroblastoma, adherent, top dose 8 µM)”, for which the AUC was 0.787 and the IC50 was determined as 3.86 µM.

With “MHH-PREB-1 (B-cell leukaemia, suspension, top dose 8 µM)”, the AUC is 0.97 and the IC50 is over 8 µM.

For “MIA-PaCa-2 (pancreas, adherent, top dose 8 µM)”, the AUC amounted to 0.981 and the IC50 was over 8 µM.

Regarding MKN1 (stomach, adherent, top dose 4 µM), the AUC was determined as 0.982 and the IC50 is over 4 µM.

On to MKN7 (stomach, adherent, top dose 8 µM), for which the AUC was determined as 0.98 and the IC50 is over 8 µM.

On to “MKN28 (stomach, adherent, top dose 8 µM)”, for which the AUC was 0.983 and the IC50 is over 8 µM.

As to “ML-2 (acute myeloid leukaemia, suspension, top dose 8 µM)”, the AUC stood at 0.892 and the IC50 stood at 7.63 µM.

“MLMA (hairy cell leukaemia, semi-adherent, top dose 8 µM)”: the AUC was 0.977 and the IC50 is over 8 µM.

As to “MM1S (myeloma, suspension, top dose 8 µM)”, the AUC came to 0.806 and the IC50 was 3.83 µM.

For the cell line “MMAC-SF (melanoma, adherent, top dose 4 µM)”, the AUC was determined as 0.921 and the IC50 is over 4 µM.

For the cell line “MN-60 (B-cell leukaemia, suspension, top dose 8 µM)”, the AUC amounted to 0.966 and the IC50 is over 8 µM.

In the case of “MOG-G-CCM (glioma, adherent, top dose 8 µM)”, the AUC is 0.982 and the IC50 is over 8 µM.

“MOG-G-UVW (glioma, adherent, top dose 8 µM)”: the AUC came to 0.933 and the IC50 is over 8 µM.

In the case of “MOLM-13 (acute myeloid leukaemia, suspension, top dose 8 µM)”, the AUC worked out at 0.92 and the IC50 was over 8 µM.

Turning to “MOLM-16 (acute myeloid leukaemia, suspension, top dose 8 µM)”, the AUC worked out at 0.968 and the IC50 was over 8 µM.

As for “MOLP-8 (myeloma, suspension, top dose 8 µM)”, the AUC is 0.947 and the IC50 was over 8 µM.

For the cell line “MOLT-4 (lymphoblastic leukaemia, suspension, top dose 8 µM)”, the AUC stood at 0.905 and the IC50 was determined as 7.19 µM.

With “MOLT-13 (T-cell lymphoblastic leukaemia, suspension, top dose 8 µM)”, the AUC is 0.933 and the IC50 was over 8 µM.

“MOLT-16 (T-cell lymphoblastic leukaemia, suspension, top dose 8 µM)”: the AUC came to 0.729 and the IC50 was determined as 1.9 µM.

“MONO-MAC-6 (acute myeloid leukaemia, suspension, top dose 8 µM)”: the AUC worked out at 0.956 and the IC50 is over 8 µM.

Regarding “MPP-89 (mesothelioma, adherent, top dose 8 µM)”, the AUC amounted to 0.98 and the IC50 is over 8 µM.

“MRK-nu-1 (breast, suspension, top dose 8 µM)”: the AUC stood at 0.947 and the IC50 was over 8 µM.

MS751 (cervix, adherent, top dose 8 µM): the AUC amounted to 0.99 and the IC50 is over 8 µM.

Regarding “MSTO-211H (mesothelioma, adherent, top dose 8 µM)”, the AUC was 0.715 and the IC50 came out at 1.89 µM.

As to “MY-M12 (leukaemia, suspension, top dose 8 µM)”, the AUC is 0.767 and the IC50 was 3.36 µM.

For the cell line “MZ1-PC (pancreas, adherent, top dose 8 µM)”, the AUC was determined as 0.953 and the IC50 was over 8 µM.

For the cell line “MZ2-MEL (melanoma, adherent, top dose 8 µM)”, the AUC is 0.682 and the IC50 was found to be 1.77 µM.

For the cell line “MZ7-mel (melanoma, adherent, top dose 8 µM)”, the AUC amounted to 0.955 and the IC50 is over 8 µM.

For the cell line “Mo-T (hairy cell leukaemia, suspension, top dose 8 µM)”, the AUC came out at 0.833 and the IC50 was found to be 5.33 µM.

As to “NAMALWA (Burkitt lymphoma, suspension, top dose 8 µM)”, the AUC was 0.984 and the IC50 is over 8 µM.

As to “NB1 (neuroblastoma, semi-adherent, top dose 8 µM)”, the AUC came out at 0.911 and the IC50 was over 8 µM.

As to “NB5 (neuroblastoma, adherent, top dose 8 µM)”, the AUC was determined as 0.848 and the IC50 came out at 6.05 µM.

As for “NB6 (neuroblastoma, adherent, top dose 8 µM)”, the AUC is 0.966 and the IC50 is over 8 µM.
